Experimental data as given in PMC3199943, “Screening the MayBridge Rule of 3 Fragment Library for Compounds That Interact with the Trypanosoma brucei myo-Inositol-3-Phosphate Synthase and/or Show Trypanocidal Activity” (Molecular Biology International, 2011).
Where a name gives a salt, the structure may show the parent alone. Read-outs that look alike come from different tables or passages of the source.

Tested on: cultured bloodstream T. brucei (strain 427)
Test: microbe, parasite or virus in culture
Details: Trypanosoma brucei
[1] = read-out: T. brucei Alamar Blue

Row | Structure (SMILES) | viability at 500 µM [1] | viability at 500 µM (read-out: T. brucei Alamar Blue (% survival))
1 | O=C(O)c1cc2ccccc2[nH]1 [compound 275, 1H‐indole‐2‐carboxylic acid] | 83 ± 15.6% | –
2 | Cc1nccc(-c2cccc(N)c2)n1 [compound 493, 3‐(2‐methylpyrimidin‐4‐yl)aniline] | 72.2 ± 9.4% | –
3 | COc1cccc(N)c1 [compound 61, 3‐methoxyaniline] | 67.4 ± 6.7% | –
4 | OCc1cnccn1 [compound 23, 2‐pyrazinylmethanol] | 110 ± 11.8% | –
5 | O=C(O)c1c[nH]c2ccccc12 [compound 273, 1H‐indole‐3‐carboxylic acid] | 88.6 ± 8.8% | –
6 | Nc1nc(-c2ccccc2)ns1 [compound 423, 3‐phenyl‐1,2,4‐thiadiazol‐5‐amine] | 59.6 ± 12.3% | –
7 | COc1ccc(Cl)cc1N [compound 246, 5‐chloro‐2‐methoxyaniline] | 85.4 ± 17.2% | –
8 | OCc1ccccc1-n1cccc1 [compound 371, [2‐(1H‐pyrrol‐1‐yl)phenyl]methanol] | 38.3 ± 1.4% | –
9 | O=C(O)c1ccc(-c2ccccc2)nc1 [compound 610, 6‐phenylnicotinic acid] | 78.4 ± 13.4% | –
10 | Cn1ccc2cc(C(=O)O)ccc21 [compound 394, 1‐methyl‐1H‐indole‐5‐carboxylic acid] | 111.3 ± 0.3% | –
11 | Cn1c(=O)cc(O)c2ccccc21 [compound 395, 4-hydroxy-1-methyl-1,2-dihydroquinolin-2-one] | 54.3 ± 16.4% | 54.3 ± 16.4%
12 | OCc1csc(-c2cccnc2)n1 [compound 566, (2‐pyridin‐3‐yl‐1,3‐thiazol‐4‐yl)methanol] | 84.4 ± 17.3% | –
13 | OCc1ccc(-c2ccccn2)s1 [compound 556, [5‐(2‐pyridinyl)‐2‐thienyl]methanol] | 128 ± 2.4% | –
14 | OCc1ccnc(N2CCCCC2)c1 [compound 568, (2‐piperidinopyrid‐4‐yl)methanol] | 59.3 ± 16.3% | –
15 | NCCc1cccs1 [compound 81, 2‐(2‐thienyl)ethylamine] | 72.3 ± 9% | –
16 | CN1CCN(C)C(CO)C1 (stereo not drawn) [compound 154, (1,4‐dimethyl‐2‐piperazinyl)methanol] | 89.2 ± 16.1% | –

Row | Structure (SMILES) | viability at 500 µM [1] | viability at 500 µM (read-out: T. brucei Alamar Blue (% survival))
17 | Nc1cccc(-c2cccnc2)c1 [compound 346, 3‐pyridin‐3‐ylaniline] | 35.6 ± 9.3% | –
18 | O=C(O)[C@H]1CCCN1 [compound 37, D‐proline] | 103 ± 8.2% | –
19 | Clc1ccc(Cl)s1 [compound 211, 2,5‐dichlorothiophene] | 102 ± 10.9% | –
20 | Cc1nc(-c2ccc(N)cc2)cs1 [compound 547, 4‐(2‐methyl‐1,3‐thiazol‐4‐yl)phenylamine] | 47.6 ± 17.4% | –
21 | Nc1ccccc1-n1cccn1 [compound 260, 2‐(1H‐pyrazol‐1‐yl)aniline] | 80.8 ± 0.7% | –
22 | COc1ccccc1C1CCNCC1 [compound 560, 4‐(2‐methoxyphenyl)piperidine] | 25 ± 2.7% | –
23 | CC1Cc2ccccc2C1=O (stereo not drawn) [compound 157, 2‐methylindan‐1‐one] | 109 ± 10.3% | –
24 | OCc1ccc(-c2ccccn2)cc1 [compound 490, (4‐pyrid‐2‐ylphenyl)methanol] | 77 ± 4.4% | –
25 | COC(=O)c1cc2ccccc2cn1 [compound 514, methyl isoquinoline‐3‐carboxylate] | 56.8 ± 18.2% | –
26 | Cc1cccc(N)c1N [compound 55, 3‐methylbenzene‐1,2‐diamine] | 30.7 ± 8.3% | –
27 | c1cncc(Cn2cccc2)c1 [compound 248, 3‐(1H‐pyrrol‐1‐ylmethyl)pyridine] | 72.1 ± 13.2% | –
28 | N#Cc1ccccc1-n1cccn1 [compound 340, 2‐(1H‐pyrazol‐1‐yl)benzonitrile] | 78.8 ± 10.1% | –
29 | CC(=O)c1ccc(C#N)cc1 [compound 155, 4‐acetylbenzonitrile] | 99.3 ± 17.3% | –
30 | ON=C1CN2CCC1CC2 [compound 416, quinuclidin‐3‐one oxime hydrochloride] | 109 ± 15% | –
31 | CC(=O)c1ccc(F)c(F)c1 [compound 234, 1‐(3,4‐difluorophenyl)ethan‐1‐one] | 98.7 ± 6.5% | –
32 | Cc1cccc(N2CCNCC2)c1C [compound 549, 1‐(2,3‐dimethylphenyl)piperazine] | 25.8 ± 3.4% | –
